This note sets out measurements from the supplement of paper PMC10681739.

In all, about 4,100 sequences were measured (“arbitrary fluorescence units”: median about 780, highest 2% from about 22,000 on). This is one part of the list.

For the assay, the target named is T1, ETS1 (UniProt P14921).
T1 sequence: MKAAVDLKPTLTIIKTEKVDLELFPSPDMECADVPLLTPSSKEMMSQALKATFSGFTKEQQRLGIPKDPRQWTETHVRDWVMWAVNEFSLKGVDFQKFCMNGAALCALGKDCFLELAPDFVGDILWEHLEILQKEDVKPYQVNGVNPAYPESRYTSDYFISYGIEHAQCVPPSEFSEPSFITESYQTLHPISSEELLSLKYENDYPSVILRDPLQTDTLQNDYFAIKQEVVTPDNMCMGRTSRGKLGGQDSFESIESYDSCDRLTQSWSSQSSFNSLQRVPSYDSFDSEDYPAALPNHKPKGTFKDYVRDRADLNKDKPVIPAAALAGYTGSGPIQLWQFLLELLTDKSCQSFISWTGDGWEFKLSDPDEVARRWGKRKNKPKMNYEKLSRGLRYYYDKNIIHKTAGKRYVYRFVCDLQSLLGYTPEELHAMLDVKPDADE
Briefly: ETS1 binding intensity (PBM fluorescence), ETS1 alone (arbitrary fluorescence units); higher = stronger binding. The conditions noted are these: ETS1 concentration 1 nM; RUNX1 concentration 0 nM. An outline of the steps:
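Recombinant full-length human ETS1 was applied at 1 nM, without RUNX1, to double-stranded Agilent 4 × 180k arrays of 36-bp genomic probes carrying a mutated RUNX1 partner site, following standard PBM protocols. Detection used an anti-ETS1 antibody (Cell Signaling Technology 14069) and an Alexa488-conjugated secondary antibody, with scanning on a GenePix 4400A. Each sequence was printed as four replicate spots. Binding level is the spot fluorescence intensity, summarised across replicates and not normalised.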
GGGCTTCAGCGGATGAACAAGGTTATCACGGGGAGT returned an ETS1 binding intensity of 485.

Sequence AGCCAGGAAATCCGCGCCTACACAGCCCAACCCCAG yielded an ETS1 binding intensity of 913.

Sequence TTCTCTGATTTTCCTTCCGCTCCCACGGCCTCTCCC gave an ETS1 binding intensity of 1360.

For CGGCGCTCCCACCGTGAGCCGACGGGAAATGGAGTC, the ETS1 binding intensity was found to be 460.

The sequence GTGTCCACTGCCTAGTTACTGCCAGCGGAAGGAAGG returned an ETS1 binding intensity of 407.

On to CTGTCAGCCCCTCAGCCCCTGCTTCCTGGCTGGCTG, for which the ETS1 binding intensity turned out to be 629.

The sequence GCGAGACGCGGAAGAGGCTTGGGGTTGACCAAAGAA gave an ETS1 binding intensity of 424.

With TGCTGCACCCCAGCCCCTTTCTCTTCCGGTTCTAGG, the ETS1 binding intensity was determined as 1850.

As to CTCCCCCAGCACATCCTCTGCCACTGCTGCCTTTCC, the ETS1 binding intensity was found to be 1720.

The sequence AGGGAACAGGAAATGCAAAAAACTACAAGGGACAAG came in with an ETS1 binding intensity of 13000.

AAGGCACCAGCCACTTCGGAGGAAACGGGGGGTGGT showed an ETS1 binding intensity of 514.

In the case of CTGCACAGCTGTCGTTGTGTAACTTCCCCCAGATGC, the ETS1 binding intensity amounted to 356.

TGTTGTAGTTCCCGAGCTTCGTCCACGCCGGATCTG returned an ETS1 binding intensity of 342.

The sequence CGAAGAGGAAGCCCCTGTATCACCCCAAAAGAAGCC gave an ETS1 binding intensity of 612.

Take CTACCTCTACCTCCGCCGCCGCCTACATCCCGTAAA: the ETS1 binding intensity is 612.

In turn, GGCAGGCACCTCAGAAGCCGGGCTTCCGTCTGACTG returned an ETS1 binding intensity of 497.

On to CCCCGCCGCTGTTCCCCCTGACCGGCTTTCCGCTGG, for which the ETS1 binding intensity turned out to be 394.

In turn, GAGGACTTCCGGGTGCGTGTGATATCTACGGGCCCG registered an ETS1 binding intensity of 18900.

In turn, CGAGCCGCCTTCCTCCCCGGCCCTCAGCCCAGCACT came in with an ETS1 binding intensity of 475.

In turn, TGGTGCCAAACATCCGCTAGCCAGAGAAAAACCGAC returned an ETS1 binding intensity of 6500.

As for GGGCAATGTGATTTGCCAGACGTTAGCGTCCGGGAG, the ETS1 binding intensity came out at 321.

As for GTCCTCTTCCTGTCCCCCAGGTGGGCATGTGATTTG, the ETS1 binding intensity was 6800.

As for CAGCCGGCACCGTGGACAGCCGCCGCTTCCGGTTTC, the ETS1 binding intensity was 5160.

Sequence GCCCAGGCTGCGCGATGGGGTCATTTCCTGCCGCCT registered an ETS1 binding intensity of 1820.

GGCCAACCAAAAAGCACTGGCAGGAAGTGGGGCAAC displayed an ETS1 binding intensity of 2530.

Take TCTACCCTTCCTGCTCTGGCCTGGGCTGGGGTAGCT: the ETS1 binding intensity amounted to 2140.

CTGCTTGGGGTTTTGGTCTGCAGGAAGCTGGGCTGC yielded an ETS1 binding intensity of 528.

In the case of AAAGAACTTCCTGAGGTGCTTGGGGTTAGGCTATGG, the ETS1 binding intensity amounted to 4310.

On to GCGGCTCTGGGAGGGAGCAGAAGGAAGGGAAGGAAG, for which the ETS1 binding intensity was determined as 406.

Sequence ACCCCGCCCCCCCCAAACAACATCCCTTGGGTGTAA gave an ETS1 binding intensity of 402.

The sequence GCACCGTCCCAGCATCCGGACACCAGAGCGGCCCTT had an ETS1 binding intensity of 3900.

In turn, GACTGAGATTTCCTGCCAGCAACTACATGGCTTGTC had an ETS1 binding intensity of 7080.

CAGCTAGCCGGAAGAAGCTGCAGCGACAGCGTCCTG had an ETS1 binding intensity of 2620.

Sequence GTGCCTGACCCCAAACCAACATTTCCTGTCTCAATT showed an ETS1 binding intensity of 4950.

Sequence TTTACGGGATGTAGGCGGCGGCGGAGGTAGAGGTAG yielded an ETS1 binding intensity of 681.
